# Assay results reported in PubChem BioAssay AID624296 (National Center for Advancing Translational Sciences (NCATS), 2012).
# Hit rate of the full screen: of about 350,000 compounds, about 9,900 (2.8%) were called active. Inconclusive results, whose numbers are uncertain, are shown with a selection of clear calls. Calls come from the whole dose curve; as a rule, active = well fitted activation curve with a large enough effect; inconclusive = small, poorly fitted or top-dose-only effect; inactive = no such curve, though single readings can be large or run the other way. No potency is given beside an inconclusive call; the fits are too rough.
# Assay: A quantitative high throughput screen for small molecules that induce DNA re-replication in MCF 10a normal breast cells. For activity, positive = re-replication: % of control where 0% means no effect. Note: nearly all actives have a fitted effect of over 50% in size.
# Settings: MCF 10A DNA re-replication, Hoechst nuclear intensity, 48 h; activity, positive = re-replication: at 46.1 µM (top of the series)
# Potency is the fitted concentration of half-maximal effect; tags give direction and shape of the fitted curve.
Structure (SMILES),Potency,"activity, positive = re-replication"
CSCC[C@H](NC(=O)[C@H]1CC[C@H](CNC(=O)[C@@H](N)Cc2ccccc2)CC1)C(=O)O,"inconclusive [activator, single point]",
COc1ccc(Nc2nc(-c3ccccc3)c(C(=O)Nc3cccnc3)s2)cc1,"inconclusive [activator, single point]",
COc1ccc(/C=C2/CCCC(CN(C)C)C2=O)cc1 (stereo not drawn),active: 2.91 µM,
Cc1csc(NC(=O)CSc2nnc(C)n2Cc2ccco2)n1,,inactive: 15.2%
Cc1cc(=O)oc2ccc(OCC(=O)N(Cc3ccc(F)cc3)Cc3ccco3)cc12,"inconclusive [activator, single point]",
COc1ccc(NC(=O)C(CC(C)C)NC(=O)C2CCCCC2)c(OC)c1 (stereo not drawn),,inactive: 3.14%
CN(C(=O)COc1ccc2c(-c3ccccc3)cc(=O)oc2c1)C1CCS(=O)(=O)C1 (stereo not drawn),"inconclusive [activator, single point]",
Cc1ccc(N(NC(=O)C(O)(c2ccccc2)c2ccccc2)C(=O)CCl)cc1,active: 23.1 µM,
CCOc1ccc(S(=O)(=O)N(C)c2ccc(OCC(=O)NCC3CCCCC3)cc2)cc1,"inconclusive [activator, partial curve, poor fit]",
Cn1c2c(c3cc([N+](=O)[O-])ccc31)CCCC2,"inconclusive [activator, single point]",
Cc1cccc(C)c1OCCCCN1CCNCC1,"inconclusive [activator, single point]",
COc1ccc2nc(C)cc(NCc3ccc(F)cc3)c2c1,active: 18.4 µM,
CCc1ccc(N2CN(Cc3ccco3)CNC2=S)cc1,"inconclusive [activator, single point]",
Oc1cccc2c(NC(=S)Nc3ccc(SC(F)F)cc3)cccc12,"inconclusive [activator, partial curve, poor fit]",
COc1ccc(/C=C2\SC(=S)N(CCC(=O)Nc3ccccc3C(=O)O)C2=O)cc1,"inconclusive [activator, single point]",
O=C1Nc2ccc(S(=O)(=O)NCCC3=CCCCC3)c3cccc1c23,"inconclusive [activator, single point]",
CCN(CC)c1ccc2c(C)c(Cl)c(=O)oc2c1,active: 4.11 µM,
O=C(COC(=O)CCCN1C(=O)c2cccc3cccc(c23)C1=O)Nc1cccc(C(F)(F)F)c1,,inactive: 4.4%
O=C(NC(NNc1ccc([N+](=O)[O-])cc1)(C(F)(F)F)C(F)(F)F)c1ccccc1Cl,"inconclusive [activator, single point]",
O=C(Nc1ccccc1C(=O)NCCc1ccccc1)c1ccco1,"inconclusive [activator, partial curve, poor fit]",
Cc1cn(CC(=O)NCc2ccc(N(C)C)cc2)c(=O)[nH]c1=O,"inconclusive [activator, partial curve, poor fit]",
CSc1nc2ccc(NS(=O)(=O)c3ccc([N+](=O)[O-])cc3)cc2s1,"inconclusive [activator, partial curve, poor fit]",
NS(=O)(=O)c1ccc(-c2ccc(C=NC3CCS(=O)(=O)C3)o2)cc1 (stereo not drawn),,inactive: 9.46%

Structure (SMILES),Potency,"activity, positive = re-replication"
Cc1ccc(C)c(Cn2c3ccccc3c3cnn(CC(=O)NCCCN4CCCCC4)c(=O)c32)c1,"inconclusive [activator, single point]",
Cc1ccc(S(=O)(=O)N(CC(=O)Nc2ccc(Cl)c([N+](=O)[O-])c2)C2CCCCC2)cc1,"inconclusive [activator, single point]",
COCc1cc(=O)[nH]c(N2CCN(Cc3ccc4c(c3)OCO4)CC2)n1,,inactive: -2.87%
Cc1cc(C)cc(N2C(=O)c3nccnc3C2=O)c1,,inactive: -5.58%
O=C(N/N=C/c1cccc(Br)c1)C1CC(=O)N(c2ccccc2)C1 (stereo not drawn),,inactive: -12.8%
CC(=O)Nc1nonc1NC(C)=O,,inactive: -4.93%
CCc1c(O)nc(SCC(=O)Nc2nc3ccccc3s2)n(C2CCCCC2)c1=O,"inconclusive [activator, partial curve]",
O=C(OCC(=O)N1N=C(c2ccc(Cl)cc2)CC1c1ccco1)c1cccnc1 (stereo not drawn),"inconclusive [activator, single point]",
NS(=O)(=O)c1ccc(NS(=O)(=O)c2ccc(NC(=S)Nc3ccccc3)cc2)cc1,,inactive: -0.505%
O=C(OCC(=O)N1CCOCC1)c1cccc(S(=O)(=O)Nc2ccc(F)cc2)c1,,inactive: -2.36%
COc1ccc(C(CNC(=O)c2nn(-c3ccccc3)c(=O)c3ccccc23)N2CCOCC2)cc1 (stereo not drawn),,inactive: 4.5%
O=C(CSc1nnc(CN2CCCC2)n1-c1ccc(F)cc1)c1ccc2c(c1)OCO2,"inconclusive [activator, single point]",
CC(C)(C)NC(=O)NC(=O)COC(=O)Cc1c(Cl)cccc1Cl,"inconclusive [activator, partial curve]",
COc1cc(/C=C(\CCC(=O)O)c2nc3ccccc3s2)ccc1OCC(=O)Nc1c(Cl)cccc1Cl,"inconclusive [activator, single point]",
CCN(CC)S(=O)(=O)c1ccc(N2CCCCC2)c(C(=O)Nc2ccccc2N2CCOCC2)c1,"inconclusive [activator, full curve, poor fit]",
Oc1c(C(Nc2nccs2)c2ccc(C(F)(F)F)cc2)ccc2cccnc12 (stereo not drawn),"inconclusive [activator, single point]",
CN(Cc1nc(-c2ccccc2)no1)C(=O)c1ccc2c(c1)OCO2,"inconclusive [activator, single point]",
COc1ccc(NC(=O)/C=C/c2ccc(OC(F)F)cc2)cn1,active: 20.6 µM,
CCC(=O)Nc1cc(-c2nn(C)c(=O)c3ccccc23)ccc1N1CCCCC1,"inconclusive [activator, single point]",
COc1ccc([C@H]2CC(=O)C=C(c3cccc(Cl)c3)C2)cc1,"inconclusive [activator, single point]",
O=C(NCC1CCCO1)c1ccc2nc(N3CCCCC3)sc2c1 (stereo not drawn),,inactive: 7.5%
CN(C1CCCCC1)S(=O)(=O)c1ccc(C(=O)Nc2sc3c(c2C(N)=O)CC(C)(C)NC3(C)C)cc1,"inconclusive [activator, partial curve, poor fit]",
O=C(C[C@H]1C/C=C\C[C@H](NC(=O)OCC2c3ccccc3-c3ccccc32)C(=O)OC[C@H](Cc2ccccc2)NC1=O)N[C@H](CO)Cc1ccccc1,"inconclusive [activator, full curve, poor fit]",

Structure (SMILES),Potency,"activity, positive = re-replication"
CN(c1cccc(NC(=O)COc2ccc(Cl)cc2Cl)c1)S(C)(=O)=O,,inactive: 13.8%
C=C1CCC[C@]2(C)C[C@H]3OC(=O)C(CN(C)CC(OC)OC)[C@H]3CC12 (stereo partly drawn),"inconclusive [activator, single point]",
COc1ccc(CNC(=O)/C=C/c2ccccc2[N+](=O)[O-])cc1,,inactive: 0.68%
CCOC(=O)c1ccc(Nc2cnc3ccccc3n2)cc1,"inconclusive [activator, single point]",
Cc1cccc(C(=O)N(Cc2nc3ccccc3c(=O)[nH]2)C2CCCC2)c1,"inconclusive [activator, single point]",
CCCSc1ccc(C(=O)Nc2ccc(F)cc2F)cn1,"inconclusive [activator, partial curve, poor fit]",
COCCNC(=O)CN(Cc1ccco1)C(=O)CCC(=O)Nc1nccs1,"inconclusive [activator, single point]",
COc1cc2c(cc1NC(=O)CC1SC(N3CCCC3)=NC1=O)oc1ccccc12 (stereo not drawn),"inconclusive [activator, single point]",
CC(Cl)C(=O)c1ccc2c(c1)CCN2C(=O)C1CC1 (stereo not drawn),,inactive: 0.443%
CC(=O)NC12CC3CC(C1)CC(C(=O)NCc1ccc(C)cc1)(C3)C2,"inconclusive [activator, single point]",
N/C(=N\NC(=O)c1sccc1OCc1ccc(Cl)cc1Cl)c1ccccn1,"inconclusive [activator, single point]",
COc1ccc(NC2CCCN(C(=O)c3cccc(C)n3)C2)cc1OC (stereo not drawn),"inconclusive [activator, single point]",
Cc1ccc(NC(=O)CN2CCN(Cc3ccccc3)CC2)c(Br)c1,"inconclusive [activator, partial curve, poor fit]",
Oc1ccccc1C=Nc1ccccc1-c1nc2ccccc2[nH]1,"inconclusive [activator, single point]",
Oc1ccc(Br)cc1Cn1nnc2ccccc21,,inactive: 9.73%
Cc1ccc(-n2[nH]c(C)c(C=Nc3ccc4[nH]c(=O)[nH]c4c3)c2=O)cc1,"inconclusive [activator, single point]",
Cc1cc(N)n(-c2ccc(Oc3ccccc3)c(S(=O)(=O)O)c2)n1,,inactive: -2.97%
COc1ccc(F)cc1C(=O)C1CCCN(Cc2ccc(Sc3nncn3C)o2)C1 (stereo not drawn),"inconclusive [activator, full curve]",
CCN1CCN(c2nc3c(C)cccn3c(=O)c2/C=C(\C#N)C(=O)NCCCOC)CC1,active: 18.4 µM,
COCCN(C(=S)Nc1cccc(C)c1C)C(C)c1ccco1 (stereo not drawn),,inactive: 8.3%
CN1CCN(c2ccc([N+](=O)[O-])cc2NC(=O)c2cccs2)CC1,,inactive: 9.31%
CCc1c(C)[nH]c2c1C(=O)[C@H](CN1CCOCC1)CC2,,inactive: 0.713% [at 20.6 µM]
